{
  "source": "PubChem BioAssay AID184",
  "about": "(DTP/NCI, 2004)",
  "tested_on": "BALB/cJ mice, ADJ-PC-6 ip tumor, median survival T/C",
  "experiment": "NCI In Vivo Anticancer Drug Screen. Data for tumor model ADJ-PC-6 (intraperitoneal) in BALB/cJ mice",
  "conditions": "endpoint: median survival time, schedule: Q04DX003 (ip), higher = longer survival",
  "experimental": "The antitumor activity of compounds was measured in mice bearing transplantable tumors. Survival or tumor size were measured and the results are expressed as the measurement made in the treated group (T) divided by the measurement made in the vehicle treated control group (C). The tumor model used in this assay is ADJ-PC-6 (intraperitoneal) in BALB/cJ mice",
  "note": "Toxic doses and inconclusive results are not listed. Some entries of the source have several records that differ or are many. This list holds those alone. The source may hold further records. Results that share an entry do not match, cause unknown; some may be repeats, others may stem from another dose, organism or construct than stated.",
  "data": [
    {"smiles": "O=NN(CCCl)C(=O)NCCCl", "values": [
      {"measurement": "T/C", "setting": "dose: 2.5 mg/kg/injection, vehicle: saline + alcohol", "result": "103 % of control, 114 % of control, 152 % of control"}
    ]},
    {"smiles": "CN(C)/N=N/c1nc[nH]c1C(N)=O", "values": [
      {"measurement": "T/C", "setting": "dose: 100.0 mg/kg/injection, vehicle: Klucel (hydroxypropylcellulose) (HPC)", "result": "104 % of control and 177 % of control"},
      {"measurement": "T/C", "setting": "dose: 100.0 mg/kg/injection, vehicle: saline with Tween-80", "result": "94 % of control, 335 % of control, 471 % of control"}
    ]}
  ]
}
